The labels stand for the following.
B1: LINE1-mini (parent)
chain: GGCAGAGCUCAACACAGCGUGGCAAAGUGGCUGUGGCUAGACUGCC

Read counts are not given, so values of variants with three or more changes are uncertain.

The variants in this data set derive from B1. In words: self-cleavage, relative activity (ratio to wild type); higher = more cleavage; in vitro, sequencing; the parent is a self-cleaving ribozyme.
On to A11U C18U C23U G33U, for which the self-cleavage was found to be 0.01.
A11U C15U A25C A39U: the self-cleavage was determined as 0.01.
With A12C G30U G33U A39U, the self-cleavage amounted to 0.06.
Turning to A11U C18G G21C A41C, the self-cleavage worked out at 0.01.
The value for A12C C18G A25U C46G was 0.02; that for A11U C15A G22C G27C U28G G33C A39U was 0.02.
Take A12C C15A G27C: the self-cleavage stood at 0.09.
With A12C C18G U20C G35A A41G, the self-cleavage was 0.02.
Turning to A12C C13U C18A U20C, the self-cleavage amounted to 0.
A11U C18A G29U: the self-cleavage stood at 0.2.
For A12C G17A C18A G21A A26G G33U, the self-cleavage is 0.
To A11U G29A C46U belongs 0.23.
For the variant A12C C15U U32G A41U, the self-cleavage worked out at 0.
With A12C G29C U43G C46U, the self-cleavage is 0.
With A12C G29C G30C, the self-cleavage was found to be 0.03.
For A11U G29U G36U, the self-cleavage amounted to 0.
For the variant A12C C15U G19A G27A, the self-cleavage amounted to 0.03.
As to A11U A26C U38C, the self-cleavage turned out to be 0.03.
To A12C A24C C42U belongs 0.02; to A12C A16C G35A C46U, 0.03.
As to A11U C15U A25G, the self-cleavage was 0.05.
To A12C G27A G30A C37U belongs 0; to A12C A26C G44A, 0.02; to A12C C31G C37A, 0.19.
To A11U C23A U32G G33C G36C U38G belongs 0.
In the case of A11U C31U G44A, the self-cleavage is 0.04.
Consider A12C G21C G40A, for which the self-cleavage turned out to be 0.
To A11U G21U G33C C37U belongs 0; to A12C G27U U32C U38A G40A, 0; to A11U U20C G22A A26U A39U, 0.02.
In the case of A12C A16U A24U U28G, the self-cleavage worked out at 0.
For A12C A14C G29C, the self-cleavage was 0.
The value for A12C A25U U28G G30A G35A C37U A41U was 0.
For A11U G17A G40A U43C C45A, the self-cleavage came out at 0.02.
To A12C G17A G19C G27U A39G C46U belongs 0; to A11U U28A C42U, 0.05.
To A11U A16U C45U belongs 0.01; to A12C C31A G36C, 0; to A11U C18A G29A G33U A39C A41U, 0.
In the case of A11U C13A A16U C31A, the self-cleavage was 0.01.
In the case of A12C C18A C37U, the self-cleavage was 0.01.
To A12C G30C U34C belongs 0; to A12C G21C C45A, 0; to A11U A24U G36A C37U, 0.01.
To A12C C37G C46A belongs 0.
On to A12C G17A U38G G44U, for which the self-cleavage worked out at 0.
The value for A12C A14C C31G was 0; that for A11U C18A C37A was 0.01; that for A12C C23A A41C was 0.02.
To A11U C23U G33C belongs 0.01; to A12C C15G U20A G27U U38A, 0.
To A12C A14G A39G belongs 0.01; to A11U G19C G22C, 0.03; to A11U G17U G19A C23A C31G, 0.01.
As for A12C A14G G17A G36U C37A, the self-cleavage was found to be 0.02.
To A11U A16U G29U C42A belongs 0.01; to A12C C15A G44U C45A, 0.01; to A12C C13A C37U, 0.03.
To A12C G21C C37G belongs 0.01.
As to A12C A26U C45G, the self-cleavage is 0.03.
Regarding A12C C15U C31G, the self-cleavage turned out to be 0.01.
Take A12C C13U U28A: the self-cleavage was determined as 0.04.
In the case of A12C G19U G22A A39U, the self-cleavage came out at 0.01.
In the case of A11U G33U C37U C45A, the self-cleavage was determined as 0.02.
On to A12C C37U U43C, for which the self-cleavage was 0.
Turning to A11U G30C A39G, the self-cleavage is 0.18.
A12C C23A U28A C31A: the self-cleavage is 0.01.
The value for A12C G29A C31G C42U was 0; that for A11U A25C G29A U38C was 0.06; that for A11U G19A A25C was 0.13.
In the case of A12C A25C C37A, the self-cleavage is 0.01.
As to A12C C13U A39U G40U, the self-cleavage worked out at 0.02.
As for A11U G27A G30U G35A U38A U43C C46U, the self-cleavage was found to be 0.01.
The value for A11U G35U A41G was 0.
As for A12C C18U U34A, the self-cleavage is 0.03.
The value for A11U G21A U34G was 0.01; that for A11U U28C C31A was 0.24.
Consider A12C C15A G22A U28G C42G, for which the self-cleavage was found to be 0.04.
The value for A11U G21U G22A G27C C31A was 0; that for A11U G19C G35U was 0; that for A12C G30C C45G was 0.
As for A11U C18A C42A, the self-cleavage worked out at 0.01.
The value for A12C G27C G44U was 0.02.
For A11U C13G A24U, the self-cleavage is 0.01.
With A12C G27C U32A G36C, the self-cleavage is 0.01.
For the variant A11U C18A C31A C45G, the self-cleavage is 0.01.
Consider A11U A16G U32A G35A A41U, for which the self-cleavage is 0.02.
To A11U C15U G17U belongs 0.02; to A11U C23U A24C C45A, 0.21.
Regarding A11U G17U C18A A25C A41G C42A, the self-cleavage came to 0.
As for A12C G17C G21U C23U, the self-cleavage came out at 0.01.
A12C A24U A26C: the self-cleavage was found to be 0.02.
On to A11U A16U A26C G40U, for which the self-cleavage worked out at 0.
Turning to A11U G22U A24C G33A G44A, the self-cleavage is 0.02.
As for A11U U32G G35U, the self-cleavage was found to be 0.06.
As for A12C G21C G27C C37G U43C, the self-cleavage is 0.01.
Take A12C C18U U28G C31G: the self-cleavage came to 0.01.
Take A11U A26U A41C: the self-cleavage is 0.02.
As for A11U G33A A41C, the self-cleavage amounted to 0.01.
As to A11U G33A A41U, the self-cleavage stood at 0.05.
The value for A12C C13A U20C was 0.02.
A12C G22A A26U G40C: the self-cleavage is 0.
Take A12C A14U C18A G22U: the self-cleavage stood at 0.04.
The value for A12C C13A G17C G44A was 0.04.
Regarding A12C A16G C23G G40U, the self-cleavage came out at 0.
The value for A11U C13U C15U C18A G19U was 0.01.
Regarding A11U G22A U43A, the self-cleavage was 0.
For A11U U28G U43A, the self-cleavage is 0.02.
For the variant A12C G30C C42G G44C, the self-cleavage worked out at 0.
For the variant A12C G17A C18A C31G, the self-cleavage worked out at 0.01.
With A12C G27A U28A, the self-cleavage stood at 0.01.
Regarding A12C A16U C18U G21U U34G C42U, the self-cleavage worked out at 0.01.
Take A11U C15G C31G: the self-cleavage worked out at 0.01.
With A11U A24G U28G, the self-cleavage was found to be 0.09.
To A12C C37A U43A belongs 0; to A11U C13A G19U C31A, 0.02; to A11U G17A U28A C37U U43A, 0.
To A12C C15G G21C C23G G44A belongs 0.04; to A11U C13A G40U, 0.01.
On to A12C A14G C37U, for which the self-cleavage was determined as 0.
The value for A11U C13A G19U A26U U34A G36U U38A was 0.01; that for A12C A14C G17U C23U G36A U38A C42U G44A was 0.02; that for A11U U34C C46A was 0.03.
As for A11U C23A U38C C42U C46A, the self-cleavage worked out at 0.01.
On to A11U C15A C42A, for which the self-cleavage came to 0.01.
In the case of A12C G30C U34C C42A, the self-cleavage came out at 0.
On to A11U C13G C18A C23A G29C, for which the self-cleavage turned out to be 0.01.
As for A12C C15A G29A G35A, the self-cleavage was 0.03.
The value for A12C A16C A25G was 0.03.
Consider A12C G21U U34G G35U, for which the self-cleavage is 0.01.
As for A12C A24G U34C G35U, the self-cleavage worked out at 0.03.
Take A11U G35A C37A U43C: the self-cleavage amounted to 0.02.
As for A11U A24U U32C U43A, the self-cleavage is 0.
With A12C G27A G36U, the self-cleavage stood at 0.09.
For the variant A11U A26C U32C G36U, the self-cleavage is 0.01.
As for A11U C23G U28A, the self-cleavage was 0.15.
With A12C G29U G35U C45A, the self-cleavage came to 0.02.
Turning to A12C G17C G19A G44C, the self-cleavage was 0.02.
Turning to A11U G40A C45G, the self-cleavage is 0.04.
For A12C G17U G21U G22C A25G U38C, the self-cleavage came to 0.01.
With A11U G35A C42U, the self-cleavage worked out at 0.04.
Regarding A11U G17C A24U, the self-cleavage amounted to 0.1.
Consider A12C A24G U34G, for which the self-cleavage turned out to be 0.
With A12C A25C G27A G29A, the self-cleavage turned out to be 0.01.
Regarding A12C C15G G40A, the self-cleavage came out at 0.01.
Take A12C C31A G35C U43C: the self-cleavage worked out at 0.
For A12C G17C A24C C31A U38A, the self-cleavage stood at 0.
For the variant A11U G30A C45U, the self-cleavage amounted to 0.38.
Regarding A12C C15U G33U G40A, the self-cleavage stood at 0.06.
To A12C G17U U20A belongs 0.04.
For the variant A11U G33U A39C U43C, the self-cleavage amounted to 0.03.
As to A11U C15G G19A A25G G27A G29U G30C, the self-cleavage was determined as 0.
Turning to A11U G22A G35C, the self-cleavage stood at 0.01.
Regarding A11U C31U G35A, the self-cleavage was 0.02.
Turning to A11U C31U U38G, the self-cleavage was 0.
To A12C C18U U28G belongs 0.02.
As to A12C A41C C42G, the self-cleavage is 0.
To A12C A41C C42A belongs 0.01; to A12C A14C C18G C42G, 0.03; to A12C G22A G27A G36U A41C C46G, 0.01.
In the case of A11U G17A A41G, the self-cleavage was found to be 0.01.
To A12C A24U A26C G29U belongs 0.02.
In the case of A11U G27U A41U U43A, the self-cleavage was found to be 0.02.
For A11U C13G A14C, the self-cleavage was 0.01.
The value for A11U C15A C18U A24U was 0.02.
The value for A11U C23U G36U C37A was 0.
The value for A11U G22U G44A was 0.03.
